# The supplement of paper PMC8728848
# Some of the results follow.
# Tests used:
# Test in all cases: glycan array binding signal (z-score within array); higher = stronger binding
# Settings in all cases: glycan notation: IUPAC condensed, linker removed
# [1] = biological target: Gal(b1-4)GlcNAc(b1-3)Gal(b1-3)GlcNAc
# Summary of the method: (§1)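 Glycan array data came from 3228 arrays in the Consortium for Functional Glycomics database, and only arrays with an available protein sequence were kept. Glycan names were put into IUPAC-condensed notation, and columns mapping to the same glycan were averaged. The binding signal is a within-array Z-score, averaged across arrays of one protein sequence run at different concentrations or buffers and across linkers. A negative Z-score can be read as non-binding.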
# [2] = biological target: Gal(b1-4)GlcNAc(b1-3)Gal(b1-4)Glc
# Summary of the method: as §1
# [3] = biological target: Gal(b1-4)GlcNAc(b1-3)Gal(b1-4)GlcNAc
# Summary of the method: as §1
# [4] = biological target: Gal(b1-4)GlcNAc(b1-3)Gal(b1-4)GlcNAc(b1-2)Man(a1-3)[Gal(b1-4)GlcNAc(b1-3)Gal(b1-4)GlcNAc(b1-2)Man(a1-6)]Man(b1-4)GlcNAc(b1-4)GlcNAc
# Summary of the method: as §1
# [5] = biological target: Gal(b1-4)GlcNAc(b1-3)Gal(b1-4)GlcNAc(b1-2)Man(a1-3)[Gal(b1-4)GlcNAc(b1-3)Gal(b1-4)GlcNAc(b1-2)Man(a1-6)]Man(b1-4)GlcNAc(b1-4)[Fuc(a1-6)]GlcNAc
# Summary of the method: as §1
# [6] = biological target: Gal(b1-4)GlcNAc(b1-3)Gal(b1-4)GlcNAc(b1-2)[Gal(b1-4)GlcNAc(b1-3)Gal(b1-4)GlcNAc(b1-6)]Man(a1-6)[Gal(b1-4)GlcNAc(b1-3)Gal(b1-4)GlcNAc(b1-2)Man(a1-3)]Man(b1-4)GlcNAc(b1-4)GlcNAc
# Summary of the method: as §1
# [7] = biological target: Gal(b1-4)GlcNAc(b1-3)Gal(b1-4)GlcNAc(b1-2)[Gal(b1-4)GlcNAc(b1-3)Gal(b1-4)GlcNAc(b1-6)]Man(a1-6)[Gal(b1-4)GlcNAc(b1-3)Gal(b1-4)GlcNAc(b1-2)Man(a1-3)]Man(b1-4)GlcNAc(b1-4)[Fuc(a1-6)]GlcNAc
# Summary of the method: as §1
# [8] = biological target: Gal(b1-4)GlcNAc(b1-3)Gal(b1-4)GlcNAc(b1-3)Gal(b1-4)GlcNAc
# Summary of the method: as §1
# [9] = biological target: Gal(b1-4)GlcNAc(b1-3)Gal(b1-4)GlcNAc(b1-3)Gal(b1-4)GlcNAc(b1-2)Man(a1-3)[Gal(b1-4)GlcNAc(b1-3)Gal(b1-4)GlcNAc(b1-3)Gal(b1-4)GlcNAc(b1-2)Man(a1-6)]Man(b1-4)GlcNAc(b1-4)GlcNAc
# Summary of the method: as §1
# [10] = biological target: Gal(b1-4)GlcNAc(b1-3)Gal(b1-4)GlcNAc(b1-3)Gal(b1-4)GlcNAc(b1-2)Man(a1-3)[Gal(b1-4)GlcNAc(b1-3)Gal(b1-4)GlcNAc(b1-3)Gal(b1-4)GlcNAc(b1-2)Man(a1-6)]Man(b1-4)GlcNAc(b1-4)[Fuc(a1-6)]GlcNAc
# Summary of the method: as §1
# [11] = biological target: Gal(b1-4)GlcNAc(b1-3)Gal(b1-4)GlcNAc(b1-3)Gal(b1-4)GlcNAc(b1-2)[Gal(b1-4)GlcNAc(b1-3)Gal(b1-4)GlcNAc(b1-3)Gal(b1-4)GlcNAc(b1-6)]Man(a1-6)[Gal(b1-4)GlcNAc(b1-3)Gal(b1-4)GlcNAc(b1-3)Gal(b1-4)GlcNAc(b1-2)Man(a1-3)]Man(b1-4)GlcNAc(b1-4)[Fuc(a1-6)]GlcNAc
# Summary of the method: as §1
# [12] = biological target: Gal(b1-4)GlcNAc(b1-3)Gal(b1-4)GlcNAc(b1-3)Gal(b1-4)GlcNAc(b1-3)Gal(b1-4)GlcNAc(b1-2)Man(a1-3)[Gal(b1-4)GlcNAc(b1-3)Gal(b1-4)GlcNAc(b1-3)Gal(b1-4)GlcNAc(b1-3)Gal(b1-4)GlcNAc(b1-2)Man(a1-6)]Man(b1-4)GlcNAc(b1-4)GlcNAc
# Summary of the method: as §1
# [13] = biological target: Gal(b1-4)GlcNAc(b1-3)Gal(b1-4)GlcNAc(b1-3)Gal(b1-4)GlcNAc(b1-3)Gal(b1-4)GlcNAc(b1-2)Man(a1-3)[Gal(b1-4)GlcNAc(b1-3)Gal(b1-4)GlcNAc(b1-3)Gal(b1-4)GlcNAc(b1-3)Gal(b1-4)GlcNAc(b1-2)Man(a1-6)]Man(b1-4)GlcNAc(b1-4)[Fuc(a1-6)]GlcNAc
# Summary of the method: as §1
# [14] = biological target: Gal(b1-4)GlcNAc(b1-3)Gal(b1-4)GlcNAc(b1-3)Gal(b1-4)GlcNAc(b1-3)Gal(b1-4)GlcNAc(b1-2)[Gal(b1-4)GlcNAc(b1-3)Gal(b1-4)GlcNAc(b1-3)Gal(b1-4)GlcNAc(b1-3)Gal(b1-4)GlcNAc(b1-6)]Man(a1-6)[Gal(b1-4)GlcNAc(b1-3)Gal(b1-4)GlcNAc(b1-3)Gal(b1-4)GlcNAc(b1-3)Gal(b1-4)GlcNAc(b1-2)Man(a1-3)]Man(b1-4)GlcNAc(b1-4)[Fuc(a1-6)]GlcNAc
# Summary of the method: as §1
# [15] = biological target: Gal(b1-4)GlcNAc(b1-3)Gal(b1-4)GlcNAc(b1-3)Gal(b1-4)GlcNAc(b1-3)Gal(b1-4)GlcNAc(b1-3)Gal(b1-4)GlcNAc(b1-2)Man(a1-3)[Gal(b1-4)GlcNAc(b1-3)Gal(b1-4)GlcNAc(b1-3)Gal(b1-4)GlcNAc(b1-3)Gal(b1-4)GlcNAc(b1-3)Gal(b1-4)GlcNAc(b1-2)Man(a1-6)]Man(b1-4)GlcNAc(b1-4)GlcNAc
# Summary of the method: as §1
# [16] = biological target: Gal(b1-4)GlcNAc(b1-3)Gal(b1-4)GlcNAc(b1-3)Gal(b1-4)GlcNAc(b1-3)Gal(b1-4)GlcNAc(b1-3)Gal(b1-4)GlcNAc(b1-2)Man(a1-3)[Gal(b1-4)GlcNAc(b1-3)Gal(b1-4)GlcNAc(b1-3)Gal(b1-4)GlcNAc(b1-3)Gal(b1-4)GlcNAc(b1-3)Gal(b1-4)GlcNAc(b1-2)Man(a1-6)]Man(b1-4)GlcNAc(b1-4)[Fuc(a1-6)]GlcNAc
# Summary of the method: as §1
# [17] = biological target: Gal(b1-4)GlcNAc(b1-3)Gal(b1-4)GlcNAc(b1-3)Gal(b1-4)GlcNAc(b1-3)Gal(b1-4)GlcNAc(b1-3)Gal(b1-4)GlcNAc(b1-2)[Gal(b1-4)GlcNAc(b1-3)Gal(b1-4)GlcNAc(b1-3)Gal(b1-4)GlcNAc(b1-3)Gal(b1-4)GlcNAc(b1-3)Gal(b1-4)GlcNAc(b1-6)]Man(a1-6)[Gal(b1-4)GlcNAc(b1-3)Gal(b1-4)GlcNAc(b1-3)Gal(b1-4)GlcNAc(b1-3)Gal(b1-4)GlcNAc(b1-3)Gal(b1-4)GlcNAc(b1-2)Man(a1-3)]Man(b1-4)GlcNAc(b1-4)[Fuc(a1-6)]GlcNAc
# Summary of the method: as §1
# [18] = biological target: Gal(b1-4)GlcNAc(b1-3)Gal(b1-4)GlcNAc(b1-3)Gal(b1-4)GlcNAc(b1-3)Gal(b1-4)GlcNAc(b1-3)Gal(b1-4)GlcNAc(b1-3)Gal(b1-4)GlcNAc(b1-2)Man(a1-3)[Gal(b1-4)GlcNAc(b1-3)Gal(b1-4)GlcNAc(b1-3)Gal(b1-4)GlcNAc(b1-3)Gal(b1-4)GlcNAc(b1-3)Gal(b1-4)GlcNAc(b1-3)Gal(b1-4)GlcNAc(b1-2)Man(a1-6)]Man(b1-4)GlcNAc(b1-4)GlcNAc
# Summary of the method: as §1
# [19] = biological target: Gal(b1-4)GlcNAc(b1-3)Gal(b1-4)GlcNAc(b1-3)GalNAc
# Summary of the method: as §1
# [20] = biological target: Gal(b1-4)GlcNAc(b1-3)Gal(b1-4)GlcNAc(b1-3)[Gal(b1-4)GlcNAc(b1-3)Gal(b1-4)GlcNAc(b1-6)]GalNAc
# Summary of the method: as §1
# [21] = biological target: Gal(b1-4)GlcNAc(b1-3)Gal(b1-4)GlcNAc(b1-6)[Gal(b1-3)]GalNAc
# Summary of the method: as §1
# [22] = biological target: Gal(b1-4)GlcNAc(b1-3)Gal(b1-4)[Fuc(a1-3)]GlcNAc(b1-3)Gal(b1-4)[Fuc(a1-3)]GlcNAc
# Summary of the method: as §1
binder,measurement,setting,value
AMA (Arum maculatun) (protein) MAKLLLLLLLPAIVGLAVPRSAAAVGSNYMLSGETLNTDGRLTNGELTLIMQVDCNLVLYHGGWQSNTANNGRDCKLTLTDFGELVIKSGTGSTVWSSGSKQSMKGNYAAVVHPEGRLVIYGPSVFKINPSGAGLNGLPLRNIPLTNNMLFSGQVLYGDGTLSARNHKLVMQGDCNMVLYGGKYGWQSNTHGNGKYCFAMLTHKGELVIRDDDFKSVWSSKSSSKQGDYVFILQDDSLAIIYGPAVFSTGSKKMISMVTN,glycan array binding signal (z-score),[1],-0.212
same,glycan array binding signal (z-score),[2],-0.217
same,glycan array binding signal (z-score),[3],-0.22
same,glycan array binding signal (z-score),[4],0.456
same,glycan array binding signal (z-score),[5],2.23
same,glycan array binding signal (z-score),[6],-0.214
same,glycan array binding signal (z-score),[7],-0.189
same,glycan array binding signal (z-score),[8],-0.223
same,glycan array binding signal (z-score),[9],0.191
same,glycan array binding signal (z-score),[10],1.16
same,glycan array binding signal (z-score),[11],-0.199
same,glycan array binding signal (z-score),[12],0.09
same,glycan array binding signal (z-score),[13],0.52
same,glycan array binding signal (z-score),[14],-0.201
same,glycan array binding signal (z-score),[15],-0.156
same,glycan array binding signal (z-score),[16],0.261
same,glycan array binding signal (z-score),[17],-0.201
same,glycan array binding signal (z-score),[18],-0.197
same,glycan array binding signal (z-score),[19],-0.149
same,glycan array binding signal (z-score),[20],-0.122
same,glycan array binding signal (z-score),[21],-0.134
same,glycan array binding signal (z-score),[22],-0.209
